Source: EP0302626A2, “Insecticidal compounds” (IMPERIAL CHEMICAL INDUSTRIES PLC, priority 1987, dated 1989)
Several values for one entry are separate records, joined by “and”; a condition that tells them apart may be missing. Identical values can stand only once. The name of at least one read-out is uncertain.

Each compound was assayed on Blattella germanica (adult males) (assay: Blattella germanica knockdown test). Details: 250 ppm in kerosene, 1 cm3 sprayed onto 10 adult males; 5 min; tests 1 and 2 are repeats; Tetramethrin: mean of 27 observations.
Format: in vivo
Method: The test compound was dissolved in acetone (2 cm³) and the solution diluted to a concentration of 250 ppm with kerosene. 1 cm³ Of this preparation was sprayed onto 10 Blattella germanica (adult males) held in a netted plastic pot in a Burkhard potter Tower. Assessment of knockdown was performed at intervals of 5 minutes up to a total of 20 minutes. On removal from the Burkhard Potter Tower, the insects were held at 25°C and 65% relative humidity for 48 hours, and an assessment of mortality performed. Each test was repeated.
In some tests, additional knockdown assessment was performed at intervals of 1, 2, 3 and 4 minutes, and KT₅₀ and KT₉₀ values determined (the time taken, in minutes, to knockdown 50% and 90% respectively of test insects).

| SMILES | % KNOCKDOWN OBSERVED 5 min |
| --- | --- |
| CC(C)=NOCc1c(F)c(F)c(COC(=O)C2C(C=C(Cl)C(F)(F)F)C2(C)C)c(F)c1F (racemic) [Product XXII, 4-[(prop-2-ylideneamino)oxymethyl]-2,3,5,6-tetrafluorobenzyl (1RS, cis)-3-(Z-2-chloro-3,3,3-trifluoroprop-1-en-1-yl-2,2-dimethylcyclopropanecarboxylate] | 70% and 100% |
| CC(=O)SCc1c(F)c(F)c(COC(=O)[C@@H]2[C@@H](/C=C(\Cl)C(F)(F)F)C2(C)C)c(F)c1F (racemic) [Product XXVII, 4-(acetylthiomethyl)-2,3,5,6-tetrafluorobenzyl (1RS, trans)-3-(Z-2-chloro-3,3,3-trifluoroprop-1-en-1-yl)-2,2-dimethylcyclopropanecarboxylate] | 10% and 0% |
| C#CCSCc1c(F)c(F)c(COC(=O)[C@@H]2[C@H](/C=C(\Cl)C(F)(F)F)C2(C)C)c(F)c1F (racemic) [Product XXV, 4-[(prop-2-yn-1-yl)thiomethyl]-2,3,5,6-tetra fluorobenzyl (1RS, cis)-3-(Z-2-chloro-3,3,3-trifluoroprop-1-en-1-yl)-2,2-dimethylcyclopropanecarboxylate] | 100% and 70% |
| C#CCN(C)Cc1c(F)c(F)c(COC(=O)[C@@H]2[C@H](/C=C(\Cl)C(F)(F)F)C2(C)C)c(F)c1F (racemic) [Product XXIV, 4-[(N-(prop-2-yn-1-yl)-N-methyl)aminomethyl]-2,3,5-6-tetrafluorobenzyl (1RS, cis)-3-(Z-2-chloro-3,3,3-trifluoroprop-1-en-1-yl)-2,2-dimethylcyclopropanecarboxylate] | 50% |
| CC1(C)C(C=C(Cl)C(F)(F)F)C1C(=O)OCc1c(F)c(F)c(CCC#N)c(F)c1F (racemic) [Product XXI, 4-(2-cyanoethyl)-2,3,5,6-tetrafluorobenzyl (1RS, cis)-3-(Z-2-chloro-3,3,3-trifluoroprop-1-en-1-yl)-2,2-dimethylcyclopropanecarboxylate] | 70% |
| CC1(C)C(C=C(Cl)C(F)(F)F)C1C(=O)OCc1c(F)c(F)c(COC=O)c(F)c1F (racemic) [Product IX, 4-(Formyloxymethyl)-2,3,5,6-tetrafluoromethyl (1RS, trans)-3-(Z-2-chloro-3,3,3-trifluoroprop-1-en-1-yl)-2,2-dimethylcyclopropanecarboxylate] | 100% and 50% |
| C#Cc1c(F)c(F)c(COC(=O)C2C(C=C(Cl)C(F)(F)F)C2(C)C)c(F)c1F (racemic) [Product XVI, 4-Ethynyl-2,3,5,6-tetrafluorobenzyl (1RS, cis)-3-(Z-2-chloro-3,3,3-trifluoroprop-1-en-1-yl)-2,2-dimethylcyclopropanecarboxylate] | 100% and 50% |

Same assay, conditions: 250 ppm in kerosene, 1 cm3 sprayed onto 10 adult males; 10 min; tests 1 and 2 are repeats; Tetramethrin: mean of 27 observations

| SMILES | % KNOCKDOWN OBSERVED 10 min |
| --- | --- |
| CC1(C)C(C=C(Cl)C(F)(F)F)C1C(=O)OCc1c(F)c(F)c(CN=[N+]=[N-])c(F)c1F (racemic) [Product X, 4-(Azidomethyl)-2,3,5,6-tetrafluorobenzyl (1RS, cis)-3-(Z-2-chloro-3,3,3-trifluoroprop-1-en-1-yl)-2,2-dimethylcyclopropanecarboxylate] | 80% |
| CC=NNc1c(F)c(F)c(COC(=O)C2C(C=C(Cl)C(F)(F)F)C2(C)C)c(F)c1F (stereo not drawn) [Product XIV, E/Z-4-(ethylidenehydrazino)-2,3,5,6-tetrafluorobenzyl (1RS, cis)-3-(Z-2-chloro-3,3,3-trifluoroprop-1-en-1-yl)-2,2-dimethylcyclopropanecarboxylate] | 50% and 100% |
